From the supplement of paper PMC8748497
Some of the results follow.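 How the source made its calls: active = GRHL reporter fold change of at least 2 over DMSO at 10 µM; inactive = below 2-fold.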 Most values come without repeats; read them as rough.

system: HEK293 GRHL-luciferase reporter; assay: GRHL luciferase reporter activity, fold change over DMSO control; higher = stronger GRHL reporter activation; settings: 10 µM; 24 h
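Further: stable HEK293 line carrying repeated GRHL consensus sites upstream of a minimal promoter driving luciferase, luminescence read 24 h post-treatment, normalized to 0.5% DMSO vehicle wells.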

Structure (SMILES) | GRHL luciferase reporter activity
c1ccc2c(c1)sc1ccccc12 | inactive: 1.47
NCC(CC(=O)O)c1ccc(Cl)cc1 (racemic) | inactive: 0.915
CC[C@@H](c1cccc(O)c1)[C@@H](C)CN(C)C | inactive: 0.795
CN1C[C@H](C(=O)N[C@]2(C)O[C@@]3(O)[C@@H]4CCCN4C(=O)[C@H](Cc4ccccc4)N3C2=O)C=C2c3cccc4[nH]cc(c34)C[C@H]21 | inactive: 0.863
CNC(C)[C@H](O)c1ccccc1 (stereo not given in full) | inactive: 0.967
CC(C)[N+](C)(CCC(C(N)=O)(c1ccccc1)c1ccccc1)C(C)C | inactive: 1.03
CC[C@@]1([C@H]2O[C@H]([C@H]3O[C@@](O)(CO)[C@H](C)C[C@@H]3C)C[C@H]2C)CC[C@H]([C@@]2(C)CC[C@]3(C[C@H](O)[C@@H](C)[C@@H]([C@H](C)[C@H](OC)[C@@H](C)C(=O)O)O3)O2)O1 | inactive: 0.151
CC(C)=CCC[C@]1(C)C=Cc2c(O)c3c(c(CC=C(C)C)c2O1)O[C@]12C(=C[C@@H]4C[C@H]1C(C)(C)O[C@@]2(C/C=C(/C)C(=O)O)C4=O)C3=O | inactive: 0.00547
C[C@@H]1CC[C@H]2[C@@H](C)C(=O)O[C@@H]3O[C@@]4(C)CC[C@@H]1[C@]32OO4 | inactive: 1.64
CC[C@H](C)[C@H]1O[C@]2(C=C[C@@H]1C)C[C@@H]1C[C@@H](C/C=C(\C)[C@@H](O[C@H]3C[C@H](OC)[C@@H](O[C@H]4C[C@H](OC)[C@@H](O)[C@H](C)O4)[C@H](C)O3)[C@@H](C)/C=C/C=C3\CO[C@@H]4[C@H](O)C(C)=C[C@@H](C(=O)O1)[C@]34O)O2.CO[C@H]1C[C@H](O[C@H]2[C@H](C)O[C@@H](O[C@@H]3/C(C)=C/C[C@@H]4C[C@@H](C[C@]5(C=C[C@H](C)[C@@H](C(C)C)O5)O4)OC(=O)[C@@H]4C=C(C)[C@@H](O)[C@H]5OC/C(=C\C=C\[C@@H]3C)[C@]54O)C[C@@H]2OC)O[C@@H](C)[C@@H]1O [ABAMECTIN (avermectin B1a shown)] | inactive: 0.0658
CC(Cl)(Cl)C(=O)O | inactive: 1.17
O=C(NC(O)C(Cl)(Cl)Cl)NC(O)C(Cl)(Cl)Cl (stereo not given) | inactive: 0.979
CC(C)(C)C(=O)C(Oc1ccc(Cl)cc1)n1cncn1 (stereo not given) | inactive: 1.34
CCC(COC(=O)c1cc(OC)c(OC)c(OC)c1)(c1ccccc1)N(C)C (stereo not given) | inactive: 1.42
CCOc1cc(C=O)ccc1O | inactive: 1.05
[O-][n+]1ccccc1[S-].[O-][n+]1ccccc1[S-].[Zn+2] | inactive: 1.44
CC(N)Cc1ccc(O)cc1 (stereo not given) | inactive: 0.96
C[C@@]12C(=O)OC(=O)[C@]1(C)[C@H]1CC[C@@H]2O1 | inactive: 0.00729

Structure (SMILES) | GRHL luciferase reporter activity
N#CCCN | inactive: 0.935
CN1C[C@H](CNC(=O)OCc2ccccc2)C[C@@H]2c3cccc4c3c(cn4C)C[C@H]21 | inactive: 0.202
CCn1cc(C(=O)O)c(=O)c2cc3c(cc21)OCO3 | inactive: 1.01
COc1cccc(C2(O)CCCCC2CN(C)C)c1 (stereo not given) | inactive: 1.11
CN1C2CCC1CC(O)C2 (stereo not given) | inactive: 1.18
CN(C)C(=O)Oc1ccc[n+](C)c1 | inactive: 0.959
C[C@]12CCC(=O)C[C@@H]1CC[C@@H]1[C@@H]2CC[C@]2(C)C(=O)CC[C@@H]12 [5alpha-ANDROSTAN-3,17-DIONE] | inactive: 0.865
CC(=O)Oc1ccc(/C=C/c2cc(OC(C)=O)cc(OC(C)=O)c2)cc1 | active: 2.75
COC(=O)C(c1ccccc1)C1CCCCN1 (stereo not given) | inactive: 0.906
CC(=O)[O][Hg][c]1ccccc1 | inactive: -0.0105
CN[C@@H]1[C@@H](O)[C@@H](O[C@@H]2[C@@H](O)[C@H](O[C@H]3O[C@H]([C@@H](C)O)[C@@H](O)[C@H](O)[C@H]3N)[C@@H](N)C[C@H]2N)OC[C@]1(C)O | inactive: 1.19
C=CC[C@]1(O)CC[C@H]2[C@@H]3CCC4=CCCC[C@@H]4[C@H]3CC[C@@]21C | inactive: 1.07
C[N+]1(C)CCCC(OC(=O)C(O)(c2ccccc2)c2ccccc2)C1 (stereo not given) | inactive: 0.898
N#CN=C(N)N | inactive: 1.09
CCC1(CC)C(=O)C=CNC1=O | inactive: 1.16
Cc1ncc(CNC(=O)N(CCCl)N=O)c(N)n1 | inactive: 1.05
NCCc1c[nH]c2ccccc12 | inactive: 1.08
